Assay results: article PMC6919601, “Identification of Plasmodium dipeptidyl aminopeptidase allosteric inhibitors by high throughput screening” (PLoS ONE, 2019)
Screen size: about 110,000 compounds; about 230 (0.21%) showed an effect of 50% or more. The list shows a part of the results.

molecular target: DPAP1 (Plasmodium falciparum, UniProt Q8IIJ9); experiment: primary screen, percent inhibition; read by cleavage of a fluorogenic dipeptide substrate; higher = more effect of the substance; parameters: species or system P. falciparum D10 trophozoite lysates; single well
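Further: 30 min substrate incubation versus DMSO and 10 µM JCP410 controls.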

DPAP1, sequence (Q8IIJ9 whole entry, looked up): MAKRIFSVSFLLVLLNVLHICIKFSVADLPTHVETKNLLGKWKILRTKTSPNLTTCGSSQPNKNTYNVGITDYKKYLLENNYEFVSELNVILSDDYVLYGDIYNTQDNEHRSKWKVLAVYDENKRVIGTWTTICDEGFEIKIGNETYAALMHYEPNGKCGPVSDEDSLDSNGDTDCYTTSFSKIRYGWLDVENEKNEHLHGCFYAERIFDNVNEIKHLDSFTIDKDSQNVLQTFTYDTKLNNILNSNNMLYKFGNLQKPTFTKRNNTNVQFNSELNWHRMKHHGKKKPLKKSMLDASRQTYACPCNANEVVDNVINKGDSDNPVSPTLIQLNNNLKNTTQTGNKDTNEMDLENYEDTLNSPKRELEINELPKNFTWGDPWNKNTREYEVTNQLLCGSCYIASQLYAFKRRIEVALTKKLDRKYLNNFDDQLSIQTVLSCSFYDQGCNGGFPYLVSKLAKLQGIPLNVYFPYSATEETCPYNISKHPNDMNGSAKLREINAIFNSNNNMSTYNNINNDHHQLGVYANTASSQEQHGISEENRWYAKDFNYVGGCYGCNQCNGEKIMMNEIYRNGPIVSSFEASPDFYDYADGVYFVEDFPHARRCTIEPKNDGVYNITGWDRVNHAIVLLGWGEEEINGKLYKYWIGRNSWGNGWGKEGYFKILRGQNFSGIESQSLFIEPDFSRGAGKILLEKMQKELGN

| Structure (SMILES) | % Inhibition @ 10 uM |
| --- | --- |
| CN1CCC(NCc2ccc(Cl)cc2Cl)CC1 | -5.65% |
| OCCN(CCO)Cc1ccc(Br)cc1 | 0.162% |
| COCCNC(=O)c1cc2cc3ccc(OC)cc3nc2o1 | -5.22% |
| C=CCN(CC=C)C(=O)CSc1nc(C)c(Cl)c(C)c1C#N | -0.0108% |
| Cc1ccccc1OCC(=O)N(Cc1ccc(Cl)cc1)Cc1ccco1 | -4.02% |
| COc1ccc(N(CC(=O)Nc2ccc(C)cc2C)S(=O)(=O)c2ccccc2)cc1OC | -11.1% |
| Cc1ccc2c(cnn2C(=O)CCC(=O)NCCCN2CCOCC2)c1 | 13.6% |
| c1ccc(CCN2Cc3ccccc3C2)cc1 | -7.35% |
| CC(C)C[C@H](NS(=O)(=O)c1ccc(-c2ccccc2)cc1)C(=O)NCC#N | -3.48% |
| O=C(Nc1ccccc1C(=O)Nc1ccccc1)c1ccc(Br)o1 | -7.25% |
| CCOc1cccc(/C=N/n2c(C)nnc2-n2nc(C)cc2C)c1O | 0.884% |
| Nc1cc(-c2ccccc2)nn1S(=O)(=O)c1ccc(F)c(Cl)c1 | -0.704% |
| CCn1c2ccccc2c2cc(CN3CCN(C)CC3)ccc21 | 2.47% |
| CCCCN(CC)CCCNC(=O)c1csc2c1CCCCC2 | -1.44% |
| Cc1cc(O)ccc1/N=C/C=C(\O)c1ccc(Cl)cc1 | 3.62% |
| O=C(CCc1nc2cccnc2n1Cc1cccs1)NC1CCCCC1 | -9.07% |
| CC(NC(=O)C(F)(F)C(F)(F)C(=O)NC(C)C1CC2CCC1C2)C1CC2CCC1C2 (stereo not shown) | -1.21% |
| COc1ccc(S(=O)(=O)N2CCN(Cc3cc(OC)c(OC)c(OC)c3)CC2)cc1 | -7.45% |
| Cc1c(S(=O)(=O)c2ccc(Cl)cc2)nnn1-c1cc(F)ccc1F | -3.68% |
| CCCNC(=O)c1ccc(COc2ccc(C(C)(C)C)cc2)o1 | 2.1% |
| Cc1ccc(C2(c3ccc(C)cc3)C(=O)NCc3ccccc32)cc1 | -5.08% |
| C=C(C)[C@@H]1CC=C(CN2CCN(c3ccccc3)CC2)CC1 | -4.14% |
| CCOC(=O)/C(C#N)=C/c1c(Oc2ccc(C)cc2C)nc2c(C)cccn2c1=O | 2% |
| COc1ccc(NC(=O)c2sc3nc(C(F)(F)F)cc(-c4ccco4)c3c2N)cc1OC | 0.873% |
| COc1ccc(C2=NS(=O)(=O)N(C)C(C(=O)NCCN3CCOCC3)=C2)cc1 | -1.06% |
| Cc1ccc(NS(=O)(=O)c2cccc(C(=O)Nc3ccccc3C(=O)O)c2)cc1 | -5.47% |
| COc1ccccc1CN1CCc2nc(S)nc(O)c2C1 | -6.85% |
| Cn1c(=O)c2c(nc(N3CCCCC3)n2CCN)n(C)c1=O | 4.3% |
